Measurements taken from the supplement of paper PMC12217912.
Some of the results follow. Sequences were assembled here from the parent chain. Values near 0.05 are background.

B1: TEV protease; numbered along this chain (parent)
chain: MGESLFKGPRDYNPISSSICHLTNESDGHTTSLYGIGFGPFIITNKHLFRRNNGTLVVQSLHGVFKVKDTTTLQQHLVDGRDMIIIRMPKDFPPFPQKLKFREPQREERICLVTTNFQTKSMSSMVSDTSCTFPSGDGIFWKHWIQTKDGQCGSPLVSTRDGFIVGIHSASNFTNTNNYFTSVPKNFMELLTNQEAQQWVSGWRLNADSVLWGGHKVFMVKPEEPFQPVKEATQL

Variants of: B1
Test: raw area under fraction-flipped curve 0-4 h after induction (AUC4h, not background-subtracted), DNA-recorder readout of cleavage of the substrate (dimensionless); higher = more cleavage of the substrate by the protease variant
Details: temperature: 34 °C; time window: 0-4 h after rhamnose induction
Experimental: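 In vivo DNA recorder in E. coli TOP10(DE3) ΔrhaA at 34 °C. Each TEVp single-site mutant (parent TEVp 0) is paired with a single-site variant of the 7-mer TEVs (canonical ENLYFQ|S). The substrate sits between flexible linkers in a Bxb1-sfGFP-TEVs-SsrA fusion, so cleavage stabilises Bxb1 and speeds flipping of a recombination array, read by NGS. The value is the raw area under the fraction-flipped curve over 0-4 h after rhamnose induction (AUC4h), with ≥20 reads per time point. It is not background-subtracted; inactive controls average about 0.047.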
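Note: Bxb1 expression induced with 0.2% (w/v) L-rhamnose at OD600 near 0.5, cultures sampled hourly, flipped fraction per protease–substrate barcode pair counted by paired-end Illumina sequencing.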

| Variant | area with substrate ENLAFQS | area with substrate ENLCFQS | area with substrate ENLDFQS | area with substrate ENLEFQS | area with substrate ENLFFQS | area with substrate ENLGFQS | area with substrate ENLHFQS | area with substrate ENLIFQS | area with substrate ENLKFQS | area with substrate ENLLFQS | area with substrate ENLNFQS | area with substrate ENLPFQS | area with substrate ENLQFQS | area with substrate ENLRFQS | area with substrate ENLSFQS | area with substrate ENLWFQS | area with substrate ENLTFQS | area with substrate ENLMFQS | area with substrate ENLVFQS |
| --- | --- | --- | --- | --- | --- | --- | --- | --- | --- | --- | --- | --- | --- | --- | --- | --- | --- | --- | --- |
| T70S | 0.0629 | 0.0635 | 0.0751 | 0.0655 | 0.0786 | 0.0549 | 0.0624 | 0.0583 | 0.074 | 0.0565 | 0.0587 | 0.055 | 0.05 | 0.0826 | 0.0868 | 0.0632 |  |  |  |
| Q105C | 0.0662 | 0.0884 | 0.0647 | 0.0672 |  |  | 0.0779 | 0.078 | 0.0937 | 0.0582 | 0.0789 |  |  | 0.0552 | 0.0659 | 0.0731 |  |  |  |
| V57L | 0.064 | 0.085 | 0.0639 | 0.086 | 0.0774 |  | 0.0781 | 0.0522 | 0.0783 |  | 0.0676 | 0.0383 |  | 0.0792 | 0.0937 | 0.075 | 0.0903 |  |  |
| V57G | 0.0604 | 0.0604 | 0.0626 | 0.0607 | 0.0857 | 0.061 | 0.0688 | 0.0709 | 0.0765 | 0.111 | 0.0707 | 0.0606 | 0.0606 | 0.0736 | 0.0621 |  | 0.0523 | 0.0761 | 0.0787 |
| V57W | 0.0948 |  | 0.066 |  | 0.0877 |  | 0.0707 | 0.0797 | 0.0752 |  | 0.0666 | 0.0646 |  | 0.0719 | 0.0603 | 0.0995 |  |  |  |
| V78F | 0.0688 |  | 0.0627 | 0.0504 |  |  |  | 0.0647 |  | 0.0816 | 0.0561 | 0.048 | 0.0596 | 0.0606 | 0.0619 |  | 0.0802 |  |  |
| V78C | 0.0936 | 0.0756 | 0.0364 | 0.0623 | 0.0993 | 0.0542 | 0.0838 | 0.0949 | 0.0734 | 0.0688 | 0.045 |  | 0.0821 | 0.0917 | 0.0628 | 0.0712 |  |  | 0.0928 |
| V78S | 0.0549 | 0.0505 | 0.0517 | 0.0602 | 0.0571 | 0.0414 | 0.0558 |  | 0.0625 | 0.0634 | 0.056 | 0.0834 |  | 0.0465 | 0.0563 | 0.0504 |  |  | 0.0355 |
| E103Q | 0.0677 |  | 0.0736 | 0.0594 | 0.0691 |  | 0.0516 | 0.0773 | 0.077 | 0.072 | 0.0696 | 0.056 | 0.0717 |  | 0.0711 | 0.0567 | 0.0771 | 0.0724 | 0.0666 |
| E103L | 0.0846 | 0.0773 | 0.0579 |  | 0.114 |  | 0.07 | 0.0912 | 0.0776 |  | 0.0474 | 0.0657 | 0.0798 | 0.098 | 0.0824 | 0.0979 |  |  |  |
| E103C | 0.0762 | 0.0954 | 0.0626 | 0.0798 | 0.1 |  | 0.0654 |  | 0.0775 | 0.0672 | 0.0658 |  |  | 0.0695 | 0.0791 | 0.108 |  |  | 0.11 |
| H62D | 0.0748 | 0.0691 | 0.064 | 0.0529 | 0.0796 |  | 0.0649 | 0.0763 | 0.0773 | 0.0697 | 0.0616 |  | 0.0656 | 0.0736 | 0.0665 | 0.0627 |  | 0.0645 | 0.0755 |
| H62F | 0.0631 |  | 0.059 | 0.0678 | 0.0712 |  | 0.0728 | 0.0729 | 0.0769 | 0.0701 | 0.0581 | 0.0635 |  | 0.0812 | 0.0613 | 0.0719 |  |  |  |
| L77S | 0.0692 | 0.0598 | 0.0647 |  | 0.0749 |  | 0.0629 | 0.0613 | 0.0754 | 0.051 | 0.0621 |  | 0.0585 | 0.0533 | 0.0672 |  |  |  |  |
| L77N | 0.0459 | 0.0573 | 0.06 | 0.0642 | 0.0644 | 0.0605 | 0.0653 | 0.0789 | 0.0723 |  | 0.0637 | 0.0628 | 0.0623 | 0.0575 | 0.0541 | 0.0571 | 0.0683 | 0.0649 |  |
| L73Y | 0.0541 | 0.0575 | 0.064 | 0.0492 | 0.0652 | 0.0712 | 0.0563 | 0.0636 | 0.0619 | 0.0576 | 0.0585 | 0.0534 |  | 0.0556 | 0.0472 | 0.0619 |  | 0.0683 |  |
| L73P | 0.069 | 0.0519 |  | 0.0626 | 0.0554 | 0.0589 | 0.0647 |  | 0.0537 | 0.0578 | 0.059 | 0.0253 | 0.0441 | 0.0623 | 0.0514 | 0.0445 |  |  |  |
| G54R | 0.0563 | 0.0638 | 0.0636 | 0.0563 | 0.0742 | 0.0595 | 0.0707 | 0.0562 | 0.0608 | 0.0593 | 0.0638 | 0.0568 | 0.0378 |  | 0.0462 | 0.0593 |  |  |  |
| G54L | 0.0444 | 0.0551 | 0.0653 | 0.0503 | 0.0781 | 0.0534 | 0.0504 | 0.0521 | 0.0599 | 0.0439 | 0.0561 | 0.0585 | 0.0478 | 0.0503 | 0.0521 |  |  | 0.0654 | 0.0733 |
| Q75C | 0.0579 |  | 0.0636 |  | 0.0699 |  | 0.0759 | 0.0947 | 0.0803 |  | 0.0581 | 0.0616 |  |  | 0.0656 |  | 0.087 | 0.0849 |  |
| G63Q | 0.0545 | 0.0685 | 0.0674 | 0.059 | 0.0804 | 0.058 | 0.0834 |  | 0.0738 | 0.0735 | 0.0626 | 0.0522 | 0.0613 | 0.0614 | 0.0582 |  |  |  |  |
| G63Y | 0.0542 |  | 0.0655 | 0.083 | 0.074 |  |  |  | 0.0773 | 0.0604 | 0.0532 | 0.063 |  | 0.0685 | 0.0569 |  | 0.0716 | 0.0556 | 0.0863 |
| T55G | 0.0739 | 0.0793 | 0.052 |  | 0.0872 | 0.068 | 0.0458 | 0.0709 | 0.0687 |  |  |  | 0.0802 | 0.069 | 0.0541 | 0.0711 |  | 0.0748 | 0.0929 |
| L56V | 0.0665 |  | 0.0726 | 0.0856 | 0.0667 | 0.0612 | 0.0706 |  | 0.0581 | 0.0606 | 0.0598 | 0.0686 | 0.0616 | 0.0915 |  | 0.0652 |  | 0.0618 | 0.0811 |
